The campaign covered roughly 410,000 compounds. About 1,200 (0.29%) were called active. This list was built around the results that the source calls inconclusive (neither active nor inactive); the mix of calls is not that of the screen. Calls come from the whole dose curve; as a rule, active = well fitted activation curve with a large enough effect; inconclusive = small, poorly fitted or top-dose-only effect; inactive = flat fitted curve, though single readings scatter. A potency beside an inconclusive call is a rough fit, not a confirmed value.
Assay: qHTS of Nrf2 Activators; note: nearly all actives have a fitted effect of over 65% in size; for activation: % of control where 0% means no effect
Settings: AREc32 ARE-luciferase reporter (MCF7-derived line), luminescence, 24 h; activation: at 46.1 µM (top of the series)
Summary of the method: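 Quantitative high-throughput format: AREc32 reporter cells, 1000 per well, received compound by pin transfer and were incubated 24 hr at 37 deg C, 5% CO2, before Steady-Glo luminescence detection.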
Potency is the fitted concentration of half-maximal effect; tags give direction and shape of the fitted curve.

SMILES | Potency | activation
COc1ccc(C(CCN(Cc2ccc(OC)c(OC)c2)C(=O)CCl)c2ccccc2)cc1 (centres undefined) | inconclusive: 17.8 µM [activator, single point] | 
CC(CCc1ccccc1)NC(=O)COC(=O)c1ccccc1Br (centres undefined) |  | inactive: -0.331%
COC(=O)c1ccccc1-c1c2ccc(=N)cc-2oc2cc(N)ccc12 |  | inactive: -0.718%
COc1ccccc1CCNC(=O)c1ccc(Br)s1 |  | inactive: 1.21%
Oc1ccc(-c2nc3ccccc3s2)c(O)c1 | inconclusive: 11.2 µM [activator, partial curve, poor fit] | 
O=C(NC(Nc1ncc(S(=O)(=O)c2ccc([N+](=O)[O-])cc2)s1)(C(F)(F)F)C(F)(F)F)c1ccc(Cl)cc1 | inconclusive: 11.2 µM [activator, single point] | 
CCCCN1C(=O)C(=O)N(CC(=O)N2N=C3/C(=C/c4ccco4)CCCC3C2c2ccco2)C1=O (centres undefined) | inconclusive: 7.94 µM [activator, partial curve] | 
COC(C(=O)Nc1cc([N+](=O)[O-])ccc1C)c1ccccc1 (centres undefined) | inconclusive: 20 µM [activator, single point] | 
Cc1cccc2sc(NC(=O)C3CCN(S(=O)(=O)c4cc([N+](=O)[O-])ccc4Cl)CC3)nc12 |  | inactive: 9.21%
Cc1ccnc(Nc2nc(-c3ccc(O)cc3O)cs2)c1 |  | inactive: 28.8%
Cc1c(Cl)ccc2sc(NC(=O)c3ccco3)nc12 | inconclusive: 0.562 µM [activator, full curve, poor fit] | 
Fc1ccc2nc(Nc3nc4c(s3)CCCC4)sc2c1 | inconclusive: 4.47 µM [activator, full curve] | 
COc1cccc(C(=O)/C=C/c2ccc(SC)cc2)c1 | inconclusive: 35.5 µM [activator, partial curve, poor fit] | 
O=C(C[n+]1cccc(Br)c1)c1cccs1 | inconclusive: 10 µM [activator, partial curve] | 
CN(C)CCNC(=O)c1ccc(-n2c(-c3ccccc3)cc3c2CCCCC3)cc1 | inconclusive: 11.2 µM [activator, partial curve, poor fit] | 
COc1ccc(OC)c(-c2[nH]nc3c2C(c2ccco2)C(C#N)=C(N)O3)c1 (centres undefined) | inconclusive: 31.6 µM [activator, single point] | 
c1ccc(-c2cc(-c3ccccc3)on2)cc1 | inconclusive: 11.2 µM [activator, partial curve] | 
CCCCN(CCCC)CCNC(=O)Cn1nc(CC)n2c(cc3sccc32)c1=O |  | inactive: 0.019%
CC(=O)Nc1ccc(N/C=C/C(=O)c2ccco2)cc1 | inconclusive: 17.8 µM [activator, single point] | 
Cn1c(SCC(=O)Nc2ccc3nc(SCC(=O)N4CCCC4)sc3c2)nnc1-c1ccc(N)cc1 |  | inactive: 3.21%
COCc1cc(C)nc(OCC(=O)N/N=C/c2ccco2)c1C#N |  | inactive: -1.05%
Cc1ccc(C(=O)NC(=C(Cl)Cl)S(=O)(=O)c2ccccc2)cc1 | inconclusive: 3.55 µM [activator, single point] | 
COc1ccc2ccccc2c1/C=N/NC(=S)NCCN1CCOCC1 | inconclusive: 12.6 µM [activator, single point] | 

SMILES | Potency | activation
NS(=O)(=O)c1ccc(NC(=O)/C=C/c2ccco2)cc1 | inconclusive: 14.1 µM [activator, partial curve, poor fit] | 
COc1ccc(N(Cc2ccccc2)C(=O)c2nc(S(C)(=O)=O)ncc2Cl)cc1 | inconclusive: 3.98 µM [activator, single point] | 
CCOC(=O)/C=C/C(=O)OCC(=O)Nc1ccc(OC)c(Cl)c1 | inconclusive: 22.4 µM [activator, single point] | 
Cc1ccc(Sc2ncnc3onc(C)c23)cc1 | inconclusive: 25.1 µM [activator, single point] | 
O=C(CCN1CCN(c2ccccc2)CC1)c1ccc(Cl)cc1 | inconclusive: 25.1 µM [activator, single point] | 
COc1ccc(O)c(-c2cc(-c3ccc(F)cc3)n[nH]2)c1 | inconclusive: 2.51 µM [activator, full curve, poor fit] | 
COc1ccc(C=CC(=O)c2ccc(OCc3ccccc3)c(OC)c2)cc1OC | inconclusive: 22.4 µM [activator, single point] | 
O=C(NN1C(=O)c2ccccc2NC1c1ccc([N+](=O)[O-])o1)c1ccccc1 (centres undefined) | inconclusive: 15.8 µM [activator, single point] | 
Cc1ccc(/C=C/C(=O)NCC2COc3ccccc3O2)o1 (centres undefined) | inconclusive: 20 µM [activator, partial curve, poor fit] | 
N#Cc1ccccc1NC(=O)CSc1nc(-c2ccccc2)cc(C(F)(F)F)c1C#N |  | inactive: 0.448%
NC(=O)c1ccccc1N/C=C/C(=O)c1ccc(F)cc1 | inconclusive: 12.6 µM [activator, single point] | 
COc1ccc(NC(=O)c2ccc3oc(=O)c(S(=O)(=O)c4ccc(F)cc4)cc3c2)cc1OC | inconclusive: 2.82 µM [activator, partial curve, poor fit] | 
O=C(/C=C/c1ccco1)NCc1ccc(F)cc1 | inconclusive: 31.6 µM [activator, single point] | 
COc1ccc(-c2nnc(Sc3nc4ccccc4o3)c3ccccc23)cc1 | inconclusive: 25.1 µM [activator, single point] | 
Cc1cc2c(=O)n(C)c(SCC(=O)Nc3cccc(O)c3)nc2s1 |  | inactive: 8.8%
Cc1ccc(-c2csc(NC(=S)NC(=O)c3ccco3)n2)cc1 | inconclusive: 6.31 µM [activator, partial curve] | 
CCOC(=O)c1sc(NC(=O)c2cc3n(n2)C(C(F)(F)F)CC(c2cccs2)N3)c(C(=O)OCC)c1C (centres undefined) |  | inactive: -0.654%
O=C(Cn1c(-c2cccs2)cc2ccccc21)N1CCN(c2ccc(Cl)cc2)CC1 |  | inactive: 0.101%
CCc1cc(/C(Cc2ccccn2)=N\Nc2ccccc2)c(O)cc1O | inconclusive: 12.6 µM [activator, single point] | 
O=c1[nH]c2ccccc2c(=O)n1Cc1ccco1 | inconclusive: 17.8 µM [activator, single point] | 
O=[N+]([O-])c1ccccc1C=CC=NN=Cc1ccccc1O | inconclusive: 4.47 µM [activator, full curve] | 
Cc1nc(C)c(C(=O)N/N=C/c2ccco2)s1 | inconclusive: 6.31 µM [activator, partial curve] | 
Cc1ccc(-c2nc(NCc3ccco3)c3ccccc3n2)cc1 | inconclusive: 8.91 µM [activator, partial curve] | 

SMILES | Potency | activation
COc1ccc(N2CCN(C(=O)CCC(=O)N3CCOc4ccc(Cl)cc43)CC2)cc1 |  | inactive: 2.72%
CC(=O)C1=CCC(c2ccc(C)cc2)N(S(=O)(=O)c2ccc(Cl)cc2)C1 (centres undefined) | inconclusive: 28.2 µM [activator, single point] | 
Cc1ccc(N=Cc2ccc(O)cc2O)cc1F | inconclusive: 35.5 µM [activator, single point] | 
Cc1cc(Nc2ccc3ccccc3c2)n2ncnc2n1 | inconclusive: 17.8 µM [activator, single point] | 
CC(=O)Oc1ccccc1/C=C/c1nc2ccccc2c(=O)o1 |  | inactive: -0.749%
COc1ccc(NC(=O)c2csnn2)cc1Cl | inconclusive: 11.2 µM [activator, partial curve, poor fit] | 
COc1ccc(Br)cc1/C=C/c1ccc2cccc(O)c2n1 | inconclusive: 5.62 µM [activator, single point] | 
CCOC(=O)C1=C(CSc2nc(-c3ccccc3)ccc2C#N)OC(N)=C(C#N)C1c1ccc(OC)cc1 (centres undefined) | inconclusive: 35.5 µM [activator, single point] | 
CCOCCc1nnc(NC(=O)c2cccc(F)c2)s1 | inconclusive: 14.1 µM [activator, partial curve, poor fit] | 
O=C(CCl)N(Cc1ccccc1)c1ccccc1 | inconclusive: 22.4 µM [activator, single point] | 
CSc1nsc(SC)c1NC(=O)Nc1ccccn1 | active: 10 µM | 
O=C1N=C(N2CCCC2)S/C1=C\c1cccc(Br)c1 | inconclusive: 22.4 µM [activator, single point] | 
CC(=O)NC1(C(Cl)(Cl)Cl)Oc2ccccc2O1 | inconclusive: 31.6 µM [activator, single point] | 
CCCN(CCC)S(=O)(=O)c1ccc(C(=O)Nc2nnc(-c3cc(OC)cc(OC)c3)o2)cc1 |  | inactive: -0.0474%
CCN(CC)c1cc(C)c2cc(NC(=O)c3cc(OC)cc(OC)c3)ccc2n1 |  | inactive: 0.0941%
O=C(/C=C/c1ccc(Cl)cc1Cl)Nc1ccc(CN2CCOCC2)cc1 |  | inactive: -0.175%
O=[N+]([O-])c1ccc(Oc2ccc(F)cc2)c2ccncc12 | inconclusive: 28.2 µM [activator, single point] | 
O=C(N/N=C/c1ccccc1[N+](=O)[O-])c1ccncc1 | inconclusive: 11.2 µM [activator, partial curve, poor fit] | 
Cc1ccc(C(=O)N2CCN(Cc3ccc4c(c3)OCO4)CC2)c(Cl)c1 |  | inactive: 2.42%
CCOc1ccc(NC(=O)CSc2nncc(=O)n2N)cc1 | inconclusive: 22.4 µM [activator, single point] | 
COc1ccccc1NC(=O)/C=C\c1ccco1 | inconclusive: 2 µM [activator, full curve, poor fit] | 
COc1ccc(C(=O)/C(=C\c2ccco2)N2C=CC=CC2=C(C#N)C#N)cc1 | inconclusive: 5.62 µM [activator, single point] | 
COc1ccc(OC)c(NC(=O)CSc2c3c(nc4cc(Cl)ccc24)CCCC3)c1 | inconclusive: 22.4 µM [activator, single point] | 
